The supplement of paper PMC8728848
The list shows a part of the results.

Legend:
Assay in all cases: glycan array binding signal (z-score within array); higher = stronger binding
Details in all cases: glycan notation: IUPAC condensed, linker removed
[1] = biological target: Fuc(a1-2)Gal(b1-4)GlcNAc(b1-3)Gal(b1-4)GlcNAc(b1-3)Gal(b1-4)GlcNAc
Procedure, shortened: (§1)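 Glycan array binding is given as a within-array Z-score, which can be read as non-binding when negative. The arrays, 3228 of them, came from the Consortium for Functional Glycomics database and were retained only where the protein sequence was available. Z-scores were averaged across arrays of the same protein sequence at different concentrations or buffers and across linkers.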

[2] = biological target: Fuc(a1-2)Gal(b1-4)GlcNAc(b1-3)GalNAc
Procedure, shortened: as §1

[3] = biological target: Fuc(a1-2)Gal(b1-4)GlcNAc(b1-3)[Fuc(a1-2)Gal(b1-4)GlcNAc(b1-6)]GalNAc
Procedure, shortened: as §1

[4] = biological target: Fuc(a1-2)Gal(b1-4)GlcNAc(b1-3)[Fuc(a1-3)[Gal(b1-4)]GlcNAc(b1-6)]Gal(b1-4)Glc
Procedure, shortened: as §1

[5] = biological target: Fuc(a1-2)Gal(b1-4)GlcNAc(b1-6)GalNAc
Procedure, shortened: as §1

[6] = biological target: Fuc(a1-2)Gal(b1-4)GlcNAc6S
Procedure, shortened: as §1

[7] = biological target: Fuc(a1-2)Gal(b1-4)[Fuc(a1-3)]GlcNAc
Procedure, shortened: as §1

[8] = biological target: Fuc(a1-2)Gal(b1-4)[Fuc(a1-3)]GlcNAc(b1-2)Man(a1-3)[Fuc(a1-2)Gal(b1-4)[Fuc(a1-3)]GlcNAc(b1-2)Man(a1-6)]Man(b1-4)GlcNAc(b1-4)[Fuc(a1-6)]GlcNAc
Procedure, shortened: as §1

[9] = biological target: Fuc(a1-2)Gal(b1-4)[Fuc(a1-3)]GlcNAc(b1-2)[Fuc(a1-2)Gal(b1-4)[Fuc(a1-3)]GlcNAc(b1-4)]Man(a1-3)[Fuc(a1-2)Gal(b1-4)[Fuc(a1-3)]GlcNAc(b1-2)Man(a1-6)]Man(b1-4)GlcNAc(b1-4)GlcNAc
Procedure, shortened: as §1

[10] = biological target: Fuc(a1-2)Gal(b1-4)[Fuc(a1-3)]GlcNAc(b1-3)Gal(b1-4)[Fuc(a1-3)]GlcNAc
Procedure, shortened: as §1

[11] = biological target: Fuc(a1-2)Gal(b1-4)[Fuc(a1-3)]GlcNAc(b1-3)Gal(b1-4)[Fuc(a1-3)]GlcNAc(b1-3)Gal(b1-4)[Fuc(a1-3)]GlcNAc
Procedure, shortened: as §1

[12] = biological target: Fuc(a1-2)Gal(b1-4)[Fuc(a1-3)]GlcNAc(b1-3)GalNAc
Procedure, shortened: as §1

[13] = biological target: Fuc(a1-2)Gal(b1-4)[Fuc(a1-3)]GlcNAc(b1-3)[Neu5Ac(a2-6)Gal(b1-4)GlcNAc(b1-6)]Gal(b1-4)Glc
Procedure, shortened: as §1

[14] = biological target: Fuc(a1-2)Gal3S(b1-4)GlcNAc
Procedure, shortened: as §1

[15] = biological target: Fuc(a1-2)Gal6S(b1-3)GlcNAc
Procedure, shortened: as §1

[16] = biological target: Fuc(a1-2)Gal6S(b1-3)GlcNAc6S
Procedure, shortened: as §1

Fuc(a1-2)Gal6S(b1-4)Glc = biological target: Fuc(a1-2)Gal6S(b1-4)Glc
Procedure, shortened: as §1

[17] = biological target: Fuc(a1-2)Gal6S(b1-4)Glc6S
Procedure, shortened: as §1

Fuc(a1-2)[Gal(a1-3)]Gal = biological target: Fuc(a1-2)[Gal(a1-3)]Gal
Procedure, shortened: as §1

[18] = biological target: Fuc(a1-2)[Gal(a1-3)]Gal(b1-3)GalNAc
Procedure, shortened: as §1

[19] = biological target: Fuc(a1-2)[Gal(a1-3)]Gal(b1-3)GalNAc(b1-3)Gal(a1-4)Gal(b1-4)Glc
Procedure, shortened: as §1

[20] = biological target: Fuc(a1-2)[Gal(a1-3)]Gal(b1-3)GlcNAc
Procedure, shortened: as §1

[21] = biological target: Fuc(a1-2)[Gal(a1-3)]Gal(b1-3)GlcNAc(b1-2)Man(a1-3)[Fuc(a1-2)[Gal(a1-3)]Gal(b1-3)GlcNAc(b1-2)Man(a1-6)]Man(b1-4)GlcNAc(b1-4)GlcNAc
Procedure, shortened: as §1

[22] = biological target: Fuc(a1-2)[Gal(a1-3)]Gal(b1-3)GlcNAc(b1-2)Man(a1-3)[Fuc(a1-2)[Gal(a1-3)]Gal(b1-3)GlcNAc(b1-2)Man(a1-6)]Man(b1-4)GlcNAc(b1-4)[Fuc(a1-6)]GlcNAc
Procedure, shortened: as §1

[23] = biological target: Fuc(a1-2)[Gal(a1-3)]Gal(b1-3)GlcNAc(b1-3)GalNAc
Procedure, shortened: as §1

[24] = biological target: Fuc(a1-2)[Gal(a1-3)]Gal(b1-3)GlcNAc(b1-6)GalNAc
Procedure, shortened: as §1

[25] = biological target: Fuc(a1-2)[Gal(a1-3)]Gal(b1-4)Glc
Procedure, shortened: as §1

[26] = biological target: Fuc(a1-2)[Gal(a1-3)]Gal(b1-4)GlcNAc
Procedure, shortened: as §1

[27] = biological target: Fuc(a1-2)[Gal(a1-3)]Gal(b1-4)GlcNAc(b1-2)Man
Procedure, shortened: as §1

[28] = biological target: Fuc(a1-2)[Gal(a1-3)]Gal(b1-4)GlcNAc(b1-2)Man(a1-3)[Fuc(a1-2)[Gal(a1-3)]Gal(b1-4)GlcNAc(b1-2)Man(a1-6)]Man(b1-4)GlcNAc(b1-4)GlcNAc
Procedure, shortened: as §1

B1: PX14343A-bvu-539-29-539 (Bacteroides vulgatus) (protein)
chain: DSLTESSSNTFWQTPDDALMALASCYDALQSNQLYNSDQYSLGPLYMDCISDNGGHFNWSGWMEGYDMAMGIHTPSSSIIGSYWKDCYEVISRCNVLIANIDRVDMDASQKAIYQAEAKTIRALMYINLTMTYQDVPFLTAPLTIDEAECEKTDRAAIVAHVMTDLQDAAEVLPQNASSRGHITKGAALSLLGRVALYNEKWDDAIAAYKQVQGLGYSLDPSYAKLFTQSGETSPEIIFAVRYEGPGMSEGAAFNAHWNTPLEAMNGTIDLADAYYCKDGKPTTDTKIAELNGGGGLDVSKPNPAHFENRDPRLYSTLFVPGMLWNGKGGIDTSASNPYANVYGGAAASLSTVYVYKYFDPTDTSNSWDNGQDFYVVRYAEVLLSLAEAMVQKGGYVYSDVTALVNEVRQRADVNMPTVEEVEGTSLSKDELLEVIKHERRVELAFEGLRLFDLYRWKELDKAVANIENERTMYGLAYEARKFNGERDYVWPLPTAELDTNKKLVQHDLWK
With B1 the “glycan array binding signal (z-score)” value [1] was -0.245, the “glycan array binding signal (z-score)” value [2] was -0.218 and the “glycan array binding signal (z-score)” value [3] was -0.346. The “glycan array binding signal (z-score)” value [4] was -0.423, the “glycan array binding signal (z-score)” value [5] was 0.015 and the “glycan array binding signal (z-score)” value [6] was -0.179. The “glycan array binding signal (z-score)” value [7] was -0.151, the “glycan array binding signal (z-score)” value [8] was 1.44 and the “glycan array binding signal (z-score)” value [9] was -0.059. For the same binder, the “glycan array binding signal (z-score)” value [10] was -0.083, the “glycan array binding signal (z-score)” value [11] was -0.123 and the “glycan array binding signal (z-score)” value [12] was -0.384. For the same binder, the “glycan array binding signal (z-score)” value [13] was -0.373, the “glycan array binding signal (z-score)” value [14] was -0.406 and the “glycan array binding signal (z-score)” value [15] was -0.303. For the same binder, the “glycan array binding signal (z-score)” value [16] was 0.019, the “glycan array binding signal (z-score)” value (Fuc(a1-2)Gal6S(b1-4)Glc) was -0.085 and the “glycan array binding signal (z-score)” value [17] was -0.262. For the same binder, the “glycan array binding signal (z-score)” value (Fuc(a1-2)[Gal(a1-3)]Gal) was 0.03, the “glycan array binding signal (z-score)” value [18] was 0.142 and the “glycan array binding signal (z-score)” value [19] was -0.301. The “glycan array binding signal (z-score)” value [20] was -0.2, the “glycan array binding signal (z-score)” value [21] was 2.54 and the “glycan array binding signal (z-score)” value [22] was -0.279. For the same binder, the “glycan array binding signal (z-score)” value [23] was -0.271, the “glycan array binding signal (z-score)” value [24] was -0.27 and the “glycan array binding signal (z-score)” value [25] was -0.467. The “glycan array binding signal (z-score)” value [26] was -0.517, the “glycan array binding signal (z-score)” value [27] was -0.401 and the “glycan array binding signal (z-score)” value [28] was 0.05.
